Test results taken from the supplement of paper PMC4723716.
In all, about 3,600 compounds were measured (“viability index relative to DMSO control”: median about 0.81, lowest 2% from about 0.13 on). Some of the results follow.

test system: Plasmodium falciparum NF54 stage V gametocytes; assay: viability index relative to DMSO control (fraction); higher = less gametocyte killing; conditions: 1.25 µM, incubation time: 72 h
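Also: 384-well serum-free SaLSSA: MitoTracker Red CMXRos staining with saponin lysis, high-content imaging, treated-well particle count divided by plate-mean count of DMSO wells.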

Structure (SMILES) | viability index
COc1ccc(C2CC(=O)C3=C(C2)NC(C)=C(C(=O)OC2CCCC2)C3c2cccc(Cl)c2)cc1OC (stereo not drawn) | 0.734
CCOc1ccc(C(=O)CN2C(=O)c3ccccc3OC(C(C)C)C2=O)cc1[N+](=O)[O-] (stereo not drawn) | 0.744
O=C(Nc1ccc(-c2nc3ccc(NC(=O)c4ccc(Br)cc4)cc3[nH]2)cc1)c1ccc(Br)cc1 | 0.899
O=C(C[n+]1ccc(C=NO)cc1)NC12CC3CC(CC(C3)C1)C2 | 1.33
CC1=C(C(=O)OC(C)C)C(c2ccccc2Cl)C2=C(CC(c3ccccc3)CC2=O)N1 (stereo not drawn) | 0.713
Cc1ccccc1N1C(=O)N(c2ccccc2)C2CS(=O)(=O)CC21 (stereo not drawn) | 1.03
COc1ccc(C(=O)Nc2nonc2-c2ccc(OC)c(OC)c2)cc1Cl | 0.767
Cc1ccnc(Nc2nc(-c3ccccn3)cs2)c1 | 0.0192
O=C(/C=C/c1ccc(-c2cccc([N+](=O)[O-])c2)o1)Nc1nccs1 | 0.808
CCN(CC)CCCC(C)Nc1cc(C=Cc2ccccc2Cl)nc2cc(Cl)ccc12 (stereo not drawn) | 0.246
COc1cc(C=C(C#N)c2nc3ccccc3[nH]2)ccc1OCc1ccccc1 | 0.815
CC(=O)Nc1ccc(S(=O)(=O)NC2C(C)(C)C3CC[C@]2(C)C3)cc1 (stereo partly drawn) | 0.772
O=C(Nc1ccc(-n2cnnn2)cc1)C1CCN(Cc2cc3ccccc3o2)CC1 | 0.942
CCOC(=O)c1c(C)[nH]c(C)c1S(=O)(=O)N1CCCC(C(=O)N2CCN(c3cccc(C)c3C)CC2)C1 (stereo not drawn) | 0.948
COc1ccc2nc(C)cc(Nc3cccc(O)c3)c2c1 | 0.659
Nc1c(C(=O)Nc2ccc(Br)cc2)sc2nc3c(c(-c4cccs4)c12)CCC3 | 0.859
N=c1c2c(n(Cc3ccc(F)cc3)c3c1CCC3)CCC2 | 0.763
CCN1C(=Cc2cccc[n+]2C)C=Cc2cc(C)ccc21 | 1.19
Cc1nc2cc(-c3ccc(I)cc3)nn2c(O)c1C | 0.654
Brc1cccc(CNC2CCN(CCc3ccccc3)CC2)c1 | 0.971
Cc1ccccc1Cc1c(C)nc2c(C#N)c(C)nn2c1C | 0.714
CC(=O)N(C1=C(N2CCCC2)C(=O)c2ccccc2C1=O)c1cccc(F)c1 | 1

Structure (SMILES) | viability index
COc1cncc(-c2cncc(-c3ccc(Oc4ccccc4)cc3)n2)c1 | 0.899
CCCn1nc(Oc2nc(NCC)cc(OC)n2)ccc1=O | 0.859
CCOC(=O)C1=C(CC)NC2=C(C(=O)CCC2)C1c1ccc(OC)c(Br)c1 (stereo not drawn) | 0.555
COc1ccc(-n2c(CNC(=O)c3cccc4ccccc34)n[nH]c2=S)cc1 | 0.758
CC(C)(C)C1=NN(CC(=O)NCCc2c[nH]cn2)C(=O)c2cc3ccccc3n2C1 | 0.523
CN1CCN(c2nc(NCCNc3ccc([N+](=O)[O-])cc3)c3ccccc3n2)CC1 | 0.776
Nc1nc(N)nc(C(c2ccccc2)c2ccccc2)n1 | 1
Cc1nc(-c2ccc[n+](C)c2)sc1C(=O)C=Cc1ccc(Cl)cc1 | 0.767
CCCOC(=O)C1=C(C)NC2=C(C(=O)CC(c3ccccc3)C2)C1c1ccc(Cl)cc1Cl (stereo not drawn) | 0.604
CCOC(=O)c1sc(NC(=O)C(C)Sc2nnc(CNC(=O)c3ccc(OC)cc3)n2-c2ccccc2OC)c(C(=O)OCC)c1C (stereo not drawn) | 0.751
S=C(NN=Cc1ccccn1)NC1CC2C=CC1C2 (stereo not drawn) | 0.0456
COc1ccc(CCNC(=O)CN(c2ccc(OC)c(OC)c2)S(=O)(=O)c2ccc(C)cc2)cc1OC | 1.03
O=C(CN1CCN(C(=O)c2ccco2)CC1)Nc1cc(C(F)(F)F)ccc1Cl | 1.11
O=C1C(N2CCCCC2)=C(N2CCCCC2)C(=O)c2ccccc21 | 0.839
COC(=O)C1=C(C)NC(=Cc2cc(C)n(-c3cc(Cl)ccc3Cl)c2C)C1=O | 0.514
Cc1ccc(C(=O)CSc2nc(N)c(C#N)c(-c3cccs3)c2C#N)cc1 | 1.07
Cc1ccc2oc(=O)c3cnn(CC(=O)Nc4ccc(F)cc4Cl)c3c2c1 | 0.783
Clc1nc(Nc2ccccc2)nc(N2CCCCC2)n1 | 0.681
CCCCOc1ccc(C(=O)Nc2cc(C)on2)cc1 | 0.637
CCc1nc2nc(C)cc(Nc3ccc(C)c(F)c3)n2n1 | 0.785
CCOC(=O)c1cnc2c(ccc3ccccc32)c1Nc1ccc(NC(C)=O)cc1 | 0.98
COc1cc(OC)cc(C(=O)NCC2Cc3cc(Cl)cc(-c4ccncc4)c3O2)c1 (stereo not drawn) | 1.07

Structure (SMILES) | viability index
CCOc1cc(C2CC(=O)NC3=C2C(=O)CC(C)(C)C3)ccc1OC(C)C (stereo not drawn) | 0.598
Cc1ncc([N+](=O)[O-])n1CCOC(=O)NC(Nc1ccc(Br)cc1)C(Cl)(Cl)Cl (stereo not drawn) | 0.605
Cc1ccc2c(c1)c(-c1ccccc1)c(-c1ccccc1)n2CC(O)CN1CCN(Cc2ccccc2)CC1 (stereo not drawn) | 0.535
Cc1ccc(-n2c(-c3ccccc3)cc(C=NNC(=O)c3cccc(-n4c(C)ccc4C)c3)c2-c2ccccc2)cc1 | 0.83
O=C1CN(C(=O)c2cc([N+](=O)[O-])c(N3CCCCC3)c([N+](=O)[O-])c2N2CCCCC2)c2ccccc2N1 | 0.591
COc1nc(Nc2ccc(C(C)C)cc2)nc(OC)n1 | 0.964
CNC1=C(N(Cc2ccc(Cl)c(Cl)c2)C(C)=O)C(=O)c2ccccc2C1=O | 0
O=C(Nc1cc(Cl)ccc1O)c1cnn2c(C(F)(F)F)cc(-c3ccc(F)cc3)nc12 | 0.859
Cc1c2cnn(CC(=O)O)c(=O)c2c(C)n1Cc1cccc(Cl)c1 | 1.24
Cc1cccc(C2c3[nH]c4ccccc4c3CCN2C(=O)CCCN2CCCCC2=O)n1 (stereo not drawn) | 0.962
Cc1cc(NC(=O)C=Cc2ccccc2Cl)ccc1Br | 0.817
CC1CCCN(c2ccc(C(=O)NC3CC3)cc2[N+](=O)[O-])C1 (stereo not drawn) | 0.805
CCN(CC)c1ccc(N=Cc2ccccc2[N+](=O)[O-])cc1 | 0.588
CCC1(C)CC(CCNCc2ccccc2O)(c2ccccc2OC)CCO1 (stereo not drawn) | 0.812
Cc1cccc(C)c1OCC(=O)Nc1ccccc1O | 1.01
O=C1C(NC2CCCC2)=C(N2CCCCC2)C(=O)c2ccccc21 | 0.236
OC(CN1CCOCC1)Cn1c2ccc(Br)cc2c2cc(Br)ccc21 (stereo not drawn) | 1.05
COc1cc(OC)cc(-n2c(=O)c3sccc3n(CC(=O)c3ccc(F)cc3)c2=O)c1 | 0.964
N#Cc1cc(-c2cccc(C(F)(F)F)c2)cn(Cc2c(Cl)cccc2Cl)c1=O | 0.73
CCCCc1c(CCC)c(=N)c2ccccc2n1C | 0.949
C=CCNC(=O)c1cc2c(=O)n3cccc(C)c3nc2n(CCc2ccccc2)c1=N | 1.02
COc1ccc(C=C2SC(=N)N(c3ccccc3OC)C2=O)cc1 | 0.55

Structure (SMILES) | viability index
Cn1nc(C(F)(F)F)c(-c2ccc(F)cc2)c1NC(=O)Nc1ccc(F)cc1F | 1.07
c1ccc(-c2ccccc2OCCNCCN2CCOCC2)cc1 | 0.644
O=C(CSc1ccc2nnc(-c3cccs3)n2n1)Nc1ccccc1 | 1.1
CCc1c(C)c(C#N)c2nc3ccccc3n2c1Nc1ccc(C)c(Cl)c1 | 0.681
CCN(CC)CCN1C(=O)c2ccccc2NC1c1ccc(C)cc1 (stereo not drawn) | 0.672
Cc1ccc(O)c(NC(=O)c2cnn3c(C(F)(F)F)cc(-c4ccccc4)nc23)c1 | 0.665
CCOC(=O)c1c(NC(C)=O)sc2c1CCN(C(C)C)C2 | 0.661
CN(C)c1cc[n+](CC(=O)c2ccc(Br)cc2)cc1 | 0.816
COCCOC(=O)C1=C(C)NC2=C(C(=O)CC(c3ccc(OC)c(OC)c3)C2)C1c1ccccc1F (stereo not drawn) | 0.807
Cc1ccc(N2C(=O)C3C(C2=O)C2(c4ccccc4)C(=O)C3(c3ccccc3)C(c3ccccc3)=C2c2ccccc2)cc1[N+](=O)[O-] (stereo not drawn) | 0.839
O=C(NCc1ccco1)c1ccc(OC2CCN(Cc3ccncc3)CC2)c(Cl)c1 | 0.905
Cc1ccc2c(c1)N=C(c1ccc([N+](=O)[O-])cc1)CO2 | 1.02
Cn1cnc(S(=O)(=O)Nc2ccccc2C(=O)NCC2CC2)c1 | 0.726
OC1CCCCC1C1(NC(=S)Nc2ccccc2)CCCCC1 (stereo not drawn) | 1.08
O=C(Nc1ccc(C23CC4CC(CC(c5ccccc5)(C4)C2)C3)cc1)c1cccs1 | 0.63
O=C(Nc1ccc(-c2nc3ccc(NC(=O)c4cccc5ccccc45)cc3[nH]2)cc1)c1cccc2ccccc12 | 1.04
COc1ccccc1Cc1nc2ccccc2nc1SCC(=O)Nc1cccc(C(F)(F)F)c1 | 0.855
Cc1cc2c(cc1C)NC(c1ccc(Cl)c(F)c1)C1=C(CC(C)(C)CC1=O)N2 (stereo not drawn) | 0.547
COc1ccc(CCNC(=O)c2cc(S(=O)(=O)N3CCC4(CC3)OCCO4)ccc2F)cc1OC | 1.17
COC(=O)C1=C(C(=O)OC)SC(=C2C(=S)C(C)(C)N(C(=O)c3ccc([N+](=O)[O-])cc3)c3ccc(C)cc32)S1 | 0.706
Cc1ccc(O)c(NC(=O)c2cnn3c(C(F)(F)F)cc(-c4ccc(Br)cc4)nc23)c1 | 0.816
CCN1CCN(c2cc(C)c3cc(NC(=O)C=Cc4cccc(Cl)c4)ccc3n2)CC1 | 0.747
